Test results: PubChem BioAssay AID1347417 (National Center for Advancing Translational Sciences (NCATS), 2020)
Screen size: about 120,000 compounds; about 5,300 (4.4%) were called active. Inconclusive results, whose numbers are uncertain, are shown with a selection of clear calls. Calls come from the whole dose curve; as a rule, active = well fitted inhibition curve with a large enough effect; inconclusive = small, poorly fitted or top-dose-only effect; inactive = no such curve, though single readings can be large or run the other way. Potencies of inconclusive entries are doubtful fits and often do not repeat.

Assay: qHTS Primary assay for Inhibitors of Plasmodium falciparum Dd2 growth in vitro; note: nearly all actives have a fitted effect of over 65% in size;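 for activity, negative = inhibition: plate controls were DMSO vehicle for no effect and reference drug for full effect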
Conditions: P. falciparum Dd2 growth, SYBR Green, 72 h; activity, negative = inhibition: at 28.9 µM (top of the series) unless noted; series mostly up to 28.9 µM
Summary of the method: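 Readout: SYBR Green fluorescence, 485 nm excitation, 535 nm emission, after ~16 h lysis at 37C. Before that, Dd2-infected red cells (2.5% hematocrit) grew 72 h with compound, 29 uM top final concentration.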
Potency is the fitted concentration of half-maximal effect; tags give direction and shape of the fitted curve.

Compound | Potency | activity, negative = inhibition | outcome
CC(C)CN1CCN(C(=O)CCC[C@H]2NC[C@@H]3C[C@H]2CN(Cc2ccccc2)C3)CC1 | inconclusive: 17.8 µM [inhibitor, single point] |  | 
COCCCNC(=O)c1ccc2c(c1)N=C(C)c1c(C)ccc(C)c1S2 | inconclusive: 7.94 µM [inhibitor, single point] |  | 
O=C(Cc1ccc(Oc2ccccc2)cc1)N1CC(COc2ccccc2)C2(C1)CN(C(=O)c1cn[nH]c1)C2 (stereo not drawn) |  | inactive: -2.51% | 
O=C1CC(c2noc(-c3cc(F)cc(F)c3)n2)CN1c1ccc(F)cc1 (stereo not drawn) | inconclusive: 0.398 µM [inhibitor, partial curve, poor fit] |  | 
O=C1NCCCCCN(C(=O)Nc2ccccc2F)[C@H]2CCCC[C@@H]12 |  | inactive: -4.15% | 
O=C(c1cccnc1)N1CCC(OC2CCN(Cc3cccnc3)CC2)CC1 | inconclusive: 20 µM [inhibitor, single point] |  | 
CC1=C[C@@H](CNC(=O)Nc2ccccc2)[C@H](C(C)C)C[C@H]1CC(=O)NCCN1CCOCC1 | inconclusive: 5.01 µM [inhibitor, partial curve, poor fit] |  | 
COc1cccc(CNC(=O)CN2C(=O)N(c3cc(C)ccc3C)S(=O)(=O)c3ccccc32)c1OC | inconclusive: 17.8 µM [inhibitor, single point] |  | 
Cc1ccc(C)c(CN2C(=O)c3ccccc3S(=O)c3ccc(C(=O)NCc4ccccc4Cl)cc32)c1 (stereo not drawn) |  | inactive: -7.29% | 
c1cnc(N2CCOCC2)c(CNCc2ccc(C3CCCCO3)o2)c1 (stereo not drawn) | inconclusive: 10 µM [inhibitor, single point] |  | 
Cc1cc(C)c(CNC(=O)c2nc(-c3ccnn3C)cc3c2ccn3C(C)C)c(=O)[nH]1 | active: 7.08 µM |  | 
COc1ccc(CNC(=O)CN(c2ccc(C)cc2)S(=O)(=O)c2c(C)n[nH]c2C)cc1 | inconclusive: 17.8 µM [inhibitor, single point] |  | 
CC1Oc2ccc(NC(=O)c3c(F)cccc3F)cc2CN(Cc2cc(F)cc(F)c2)C1=O (stereo not drawn) | inconclusive: 3.55 µM [inhibitor, single point] |  | 
CN1CCN(C(=O)C2CCCN(c3nc4ncccc4o3)C2)CC1 (stereo not drawn) | inconclusive: 31.6 µM [inhibitor, single point] |  | 
COC(=O)[C@H](NC(=O)[C@@H]1[C@@H](NC(=O)Nc2cccc(SC)c2)CCN1C(=O)c1cccn1C)C(C)C |  |  | inactive
CN(C)CCNC(=O)C[C@@H]1c2nc(NC(=O)c3ccc(C(C)(C)C)cc3)sc2C[C@@H]2[C@](C)(CO)[C@H](O)CC[C@]21C | inconclusive: 6.31 µM [inhibitor, partial curve, poor fit] |  | 
Cc1oc2c(c1C(=O)NCc1cccc(Br)c1)C1=NCCN1C=N2 | inconclusive: 10 µM [inhibitor, single point] |  | 
Cc1ccc(C(=O)N2CCC3(CC2)CC(=O)Nc2ccccc2O3)cc1 |  | inactive: 1.81% | 
COc1ccc(-c2cc(CC3(NCc4ccccc4)COC3)no2)cc1 |  |  | inactive [at 44.1 µM]
Cc1cccc(C(=O)Nc2cccc(C3OC(=O)N(Cc4ccccc4)C3C(=O)N3CCOCC3)c2)c1 (stereo not drawn) |  |  | inactive
CCOc1ccc(C2c3c(-c4ccc(C)cc4)n[nH]c3C(=O)N2c2ccc(Cl)cc2)cc1 (stereo not drawn) | active: 10 µM |  | 

Compound | Potency | activity, negative = inhibition | outcome
CC1(COc2ccc3[nH]ccc3c2)COc2ccc(C(=O)N3CC(O)C3)cc2N1 (stereo not drawn) |  | inactive: -8.29% [at 44.1 µM] | 
Cc1nccc(N2CCN(C(=O)N3CCOCC3)CC(C(=O)O)C2)n1 (stereo not drawn) |  | inactive: 0.479% | 
CCN(CCNC(=O)CC1CCN(c2ccnc(OC)n2)CC1)Cc1ccccc1 | inconclusive: 12.6 µM [inhibitor, single point] |  | 
C[C@H]1[C@@H]2[C@@H](O)[C@H]([C@H](C)C(=O)N3CCCCC3)CC[C@@]2(C)CC[C@@H]1NS(C)(=O)=O |  | inactive: -2.29% [at 44.1 µM] | 
Cc1cnc(-c2ccccc2)n1C1CCCN(C(=O)COc2ccc(F)cc2)C1 (stereo not drawn) | active: 2.82 µM |  | 
COc1ccc(OC)c(Nc2nc(-c3ccc(C)cc3)nc3ccccc23)c1 | inconclusive: 20 µM [inhibitor, single point] |  | 
O=C(Nc1ccc(-c2cc(C(F)(F)F)nn2-c2ccccc2)cc1)c1cccc(F)c1 | active: 11.2 µM |  | 
O=C(C[C@@H]1CCNC[C@@H]1Cc1cc(-c2ccccc2)on1)NCc1ccc(F)cc1 | inconclusive: 31.6 µM [inhibitor, single point] |  | 
c1ccc(CNc2ncc(-c3ccc(N4CCOCC4)cc3)c3c2OCC3)cc1 | inconclusive: 28.2 µM [inhibitor, single point] |  | 
O=c1[nH]c(C2CCCN(CC3CCCCC3)C2)nn1-c1ccc(Cl)cc1 (stereo not drawn) | inconclusive: 1.58 µM [inhibitor, partial curve] |  | 
CCN1CCC(N(Cc2cccc(OC)c2)C(=O)Nc2cccc(C(F)(F)F)c2)CC1 | inconclusive: 10 µM [inhibitor, single point] |  | 
Cc1cc(C)cc(C(=O)NCCn2cccc2-c2nc(-c3ccc4c(c3)OCO4)no2)c1 | inconclusive: 11.2 µM [inhibitor, partial curve, poor fit] |  | 
Cc1ccc2occ(-c3cc(-c4ccccc4)nc4c3COc3ccccc3-4)c(=O)c2c1 | inconclusive: 20 µM [inhibitor, single point] |  | 
Cc1ccc(C)c(NC(=O)CSc2nc3nccnc3c(=O)n2CCc2c[nH]c3ccccc23)c1 | inconclusive: 15.8 µM [inhibitor, single point] |  | 
NCc1ccc(-c2ccc(OC(F)(F)F)cc2)cc1 | inconclusive: 20 µM [inhibitor, single point] |  | 
Cc1c(C(=O)N2CCCC2)oc2c1-c1nn(CC(=O)NCc3ccc(OC(C)C)cc3)cc1CC2 | inconclusive: 7.94 µM [inhibitor, single point] |  | 
CN(CC(=O)Nc1ccc(OC(F)(F)F)cc1)S(=O)(=O)c1ccc2c(c1)CCC(=O)N2 | inconclusive: 1.26 µM [inhibitor, single point] |  | 
COc1ccc(C2(C(=O)N3CCC(F)CC3)CCOCC2)cc1 |  | inactive: 12.6% | 
CC(=O)c1ccc(N2CCN(C(=O)Nc3ccc(C)cc3)CC2)cc1 | inconclusive: 1.26 µM [inhibitor, full curve, poor fit] |  | 
COc1cc(C(=O)Nc2ccc3nc4n(c(=O)c3c2)CCCCC4)cc(OC)c1OC | inconclusive: 15.8 µM [inhibitor, single point] |  | 
CCN(C(=O)CSc1nc2ccccc2c2nc(CCn3c(C)nc4ccccc43)nn12)c1cccc(C)c1 | inconclusive: 11.2 µM [inhibitor, single point] |  | 

Compound | Potency | activity, negative = inhibition | outcome
CCc1nc(NCc2cn[nH]c2-c2ccc(Cl)cc2)c2cnn(C)c2n1 | inconclusive: 2 µM [inhibitor, full curve, poor fit] |  | 
CCOCCCNC(=O)N1C[C@@H](Oc2cccnc2)C[C@@H]1C(=O)NC |  | inactive: 15.1% | 
CC(=O)c1cccc(NC(=O)c2cnc(-c3ccccc3)nc2-c2ccncc2)c1 |  |  | inactive
Cc1nn2c(c1-c1ccnn1C(C)C)N(Cc1ccc(C(=O)O)s1)CCC2 | inconclusive: 6.31 µM [inhibitor, full curve, poor fit] |  | 
O=C(Nc1ccc(-c2nc3cc(Cl)ccc3o2)cc1)c1cc(Br)ccc1Cl | inconclusive: 12.6 µM [inhibitor, single point] |  | 
COc1ccc(CNCc2c(C(=O)O)c(C)n(Cc3ccccc3C)c2C)cc1OC | inconclusive: 17.8 µM [inhibitor, single point] |  | 
O=C1CO[C@H]2CN(Cc3c[nH]c4ccccc34)C[C@H]2N1Cc1ccc(F)cc1 | active: 5.01 µM |  | 
Cc1ccc(C)c(N2CCN(S(=O)(=O)c3ccc4[nH]c5c(c4c3)CCCC5)CC2)c1 | inconclusive: 11.2 µM [inhibitor, partial curve] |  | 
CCCCNC(=O)C1(c2ccc(NC(=O)C(C)C)cc2)CCCCC1 | inconclusive: 20 µM [inhibitor, single point] |  | 
CN(C)C[C@@H]1CN(Cc2ccccn2)C[C@H]1NC(=O)c1n[nH]c2ccccc12 | inconclusive: 8.91 µM [inhibitor, partial curve, poor fit] |  | 
COc1cccc(CNC(=O)c2ccc3c(c2)CC(=O)N3Cc2ccccc2)c1 | inconclusive: 3.98 µM [inhibitor, single point] |  | 
CC(C)C1CN(C(=O)c2ccc(F)cn2)CCC(=O)N1Cc1ccc(F)cc1 (stereo not drawn) |  | inactive: 10.4% | 
COc1ccc(NC(=O)Cn2c(=O)n(CCCC(=O)NCc3ccccc3Cl)c(=O)c3ccccc32)c(OC)c1 | inconclusive: 3.98 µM [inhibitor, single point] |  | 
CCc1ccc(C(c2ccccc2)c2c(C)[nH]c3ccccc23)s1 (stereo not drawn) | inconclusive: 17.8 µM [inhibitor, single point] |  | 
CC(C)NC(=O)NC[C@H]1O[C@@H](CC(=O)Nc2ccccc2)[C@H](O)[C@@H]1O |  | inactive: 15.7% [at 44.1 µM] | 
Cn1ccc(C(=O)N2CCC3(CC2)OC(=O)N(Cc2ccccc2F)C3(C)c2ccccc2)n1 (stereo not drawn) | inconclusive: 5.01 µM [inhibitor, partial curve] |  | 
CCOc1ccccc1C(=O)NC1CCN(c2cc(C)cc(C)c2)C1=O (stereo not drawn) | inconclusive: 2.51 µM [inhibitor, single point] |  | 
OCC1COCCN(Cc2csc(-c3ccc(C(F)(F)F)cc3)n2)C1 (stereo not drawn) | inconclusive: 14.1 µM [inhibitor, partial curve] |  | 
CC(C)c1nc2c(c(-c3ccc(Cl)cc3)n1)CN([S+](=O)([O-])c1ccccc1)CC2 | inconclusive: 17.8 µM [inhibitor, single point] |  | 
O=C(Cc1ccc(F)cc1)NC1CCN(c2nc3ncccc3o2)CC1 |  | inactive: -17.2% [at 44.1 µM] | 
Cc1ncsc1CCC(=O)N[C@H](c1cccs1)C1CC(O)C1 (stereo partly drawn) |  | inactive: -12.6% | 
